Results from the supplement of paper PMC4166925.
± gives the standard deviation of the averaged measurements. Whole data set: some 33,000 sequences, median “E-score (dimensionless, -0.5 to 0.5)” near -0.046, cut for the highest 2% near 0.36. The list shows a part of the results.

Tested on: T1, SpTbr T-box DNA-binding domain (GST fusion)
T1 sequence: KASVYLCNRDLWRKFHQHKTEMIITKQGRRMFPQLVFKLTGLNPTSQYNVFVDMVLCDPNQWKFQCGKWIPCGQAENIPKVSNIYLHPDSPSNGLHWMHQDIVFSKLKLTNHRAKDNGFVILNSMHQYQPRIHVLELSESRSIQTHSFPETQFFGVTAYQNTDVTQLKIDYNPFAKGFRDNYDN
Experiment: PBM E-score of 8-mer (E-score (dimensionless, -0.5 to 0.5)); Tbr is Tbrain of the sea star Patiria miniata (Pm) or the sea urchin Strongylocentrotus purpuratus (Sp); higher = stronger binding preference; most listed sequences are background and not binding sites
Details: the construct has about 5 more residues each side
Procedure, shortened: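 Expression of GST-fused Tbr T-box DNA-binding domains, each holding the full T-box plus roughly five flanking residues, was carried out in BL21 E. coli at 20 °C, with purification by glutathione affinity chromatography. Universal Agilent arrays made double-stranded by primer extension were incubated with the protein at 200 nM in PBS (pH 7.5), then scanned and quantified. All ungapped 8-mers were scored from probe intensities, and each received an enrichment E-score from the Universal PBM Analysis Suite, averaged over duplicate arrays.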

Sequence	PBM E-score of 8-mer
ACCAGACG	-0.138 ± 0.13
AATCAGGC	-0.107 ± 0.036
GTTAAAGA	-0.133 ± 0.028
ACCCTCCT	0.0378 ± 0.0066
GATTGAGC	-0.103 ± 0.009
CAGTAGCA	0.0713 ± 0.055
ACGTACGA	-0.153 ± 0.03
ATGGCGAG	0.152 ± 0.005
CAGCCGTA	-0.195 ± 0.048
AGTATGGA	-0.236 ± 0.03
CACGATGA	0.139 ± 0.018
AGCCCGTG	-0.141 ± 0.034
ACGTGTCC	0.0769 ± 0.048
CTAGCTGA	-0.0136 ± 0.11
AGTTATCC	-0.17 ± 0.075
TGCGGGAA	-0.111 ± 0.031
GCTCAACC	-0.204 ± 0.025
GAAATTGA	-0.122 ± 0.096
AGTAAGAA	-0.154 ± 0.043
AAGAGAAA	-0.258 ± 0.023
GCATTCTA	-0.293 ± 0.06
CGAAAGGA	0.0114 ± 0.0063
AAAGCACG	0.0696 ± 0.013
CACCCCCA	0.246 ± 0.028
AAGACCTG	-0.0573 ± 0.036

Sequence	PBM E-score of 8-mer
AAAGCGAG	-0.044 ± 0.048
CCAAACAC	0.287 ± 0.023
GCGTGGGA	0.00128 ± 0.029
AACCGCTG	0.0391 ± 0.007
AATACCAG	-0.214 ± 0.013
AAAGCAAT	-0.354 ± 0.069
AACACAAC	0.197 ± 0.031
TGTCCTAA	-0.217 ± 0.01
AAATACCA	-0.147 ± 0.024
GAAGCTAC	-0.0991 ± 0.033
AGAGTATC	-0.133 ± 0.0068
GGCTTACA	-0.17 ± 0.044
TACGTATA	-0.0478 ± 0.04
AAGGGACA	-0.0762 ± 0.002
GGATGGCA	-0.14 ± 0.021
GGGGCGAA	-0.12 ± 0.03
ACTGTGCG	0.112 ± 0.005
ATTGTGTG	0.279 ± 0.0062
ACCTCCGA	0.168 ± 0.02
CCCACACG	0.15 ± 0.1
AGGTTTTG	-0.0401 ± 0.02
CACCCCCG	0.234 ± 0.018
ACCGGTGA	0.145 ± 0.022
GCCCTCCA	-0.1424 ± 0.0007
ATCTACCC	-0.264 ± 0.03

Sequence	PBM E-score of 8-mer
CCATTACG	-0.081 ± 0.0088
ACAACTCT	0.183 ± 0.002
ACAACTGA	0.0471 ± 0.052
ATGTTGCG	0.15 ± 0.0049
CATACTAG	-0.107 ± 0.01
AGATCAAC	-0.203 ± 0.047
AGGTACCA	-0.104 ± 0.075
ATCTAAGC	-0.107 ± 0.031
ATCCAACA	0.125 ± 0.021
CCTGTATC	-0.0503 ± 0.015
GCCGAGTA	-0.0238 ± 0.038
AAGGGAAA	-0.289 ± 0.05
CCGAAGCG	0.0241 ± 0.018
ACGAGGCC	-0.274 ± 0.043
AACGGGGG	0.153 ± 0.011
ATGGTGTG	0.39 ± 0.023
ACTTCCAC	-0.0342 ± 0.034
GCTTTCAC	0.311 ± 0.012
ACGCGAGT	0.107 ± 0.072
GGTCGACA	0.203 ± 0.045
CATAGCAG	0.0783 ± 0.072
AGATATAG	-0.138 ± 0.025
AGGTCTAG	-0.252 ± 0.04
GATACCAC	-0.105 ± 0.034
ACGAGCTC	-0.201 ± 0.018

Sequence	PBM E-score of 8-mer
TGTCTGAA	0.189 ± 0.047
ATAGTGTA	0.0763 ± 0.038
GGGATACC	-0.246 ± 0.071
CACAAGAA	-0.103 ± 0.0099
AAGCAAAC	-0.043 ± 0.0047
AGTTTTCA	-0.0351 ± 0.023
AAGCTTCT	-0.174 ± 0.06
AGGATGGG	-0.238 ± 0.097
AGTAACCG	-0.141 ± 0.032
CGTTGGAA	-0.178 ± 0.065
AACATTGC	-0.0517 ± 0.018
CCTCCCCA	0.0422 ± 0.042
AACTCAGC	-0.111 ± 0.16
CGTAGGGA	-0.119 ± 0.043
CAATGAAA	-0.0996 ± 0.026
ACCATTCC	-0.173 ± 0.019
ACGGACAG	-0.0366 ± 0.0078
AGCAAGGG	-0.109 ± 0.0078
GAGCCGGA	-0.275 ± 0.019
AAAGAACG	-0.0627 ± 0.059
CTTTGTAA	-0.125 ± 0.01
AACGTACC	-0.362 ± 0.0053
CGCACATC	0.338 ± 0.022
CTCTCGTC	0.00785 ± 0.001
AATGGCCG	-0.0624 ± 0.011

Sequence	PBM E-score of 8-mer
ATATCGTG	-0.00237 ± 0.011
AAGGAACA	-0.0728 ± 0.0028
GAAGTGCC	0.252 ± 0.013
GGGATTAC	-0.0663 ± 0.035
GTCATCCA	0.0416 ± 0.0033
ATTCGGCC	-0.0848 ± 0.03
TATGCATA	-0.194 ± 0.18
CTCAGAGA	-0.274 ± 0.011
TGGTTAAA	-0.0311 ± 0.097
ACTTTCCA	0.113 ± 0.099
CATTTAGA	-0.0495 ± 0.043
GTGAATAA	0.297 ± 0.048
ATGCTTTG	0.0712 ± 0.058
AGGACCCT	-0.205 ± 0.089
CGTAAAAA	-0.0432 ± 0.096
AGACACAA	0.11583 ± 7.1e-06
ATAATTAT	-0.166 ± 0.015
CCTCTACC	-0.103 ± 0.045
ACCTTTCT	0.00707 ± 0.012
ATAAATGC	-0.0319 ± 0.057
CTTGTGCC	-0.0432 ± 0.012
ACAGAGGG	-0.118 ± 0.029
ATTGTATC	-0.0284 ± 0.019
ATCAACCG	-0.199 ± 0.015
CCCCAGGC	-0.219 ± 0.014

Sequence	PBM E-score of 8-mer
CTCACGGA	0.0974 ± 0.031
ATTGGGAC	-0.269 ± 0.026
ACACTGCC	0.0459 ± 0.067
CCTTGCGC	0.131 ± 0.0037
CCTACACG	0.0185 ± 0.081
ACAGCAGA	-0.106 ± 0.047
CCAAAGGG	-0.173 ± 0.035
GGACATCC	-0.105 ± 0.073
GCTTCCCA	0.0719 ± 0.0025
CTATCAAC	0.0735 ± 0.067
TTAATGAA	-0.153 ± 0.044
CTATGCTA	-0.0322 ± 0.017
ATATCGAT	0.0225 ± 0.016
AAAGCTTC	-0.0192 ± 0.087
ATGTTGAC	0.13 ± 0.044
GAGTCTAC	-0.216 ± 0.026
CAGGGGGA	-0.201 ± 0.088
CAGTGCAA	0.0036 ± 0.071
GTTTCTAA	-0.0313 ± 0.023
CAAATTTG	-0.0145 ± 0.092
TACACCCA	0.105 ± 0.011
GGCGTTTA	0.0351 ± 0.013
GTTTACTA	-0.113 ± 0.016
ATAAATTA	-0.0716 ± 0.0029
GTTGACGA	0.279 ± 0.0033

Sequence	PBM E-score of 8-mer
CACCATAC	-0.065 ± 0.011
ACCAGTCA	-0.0447 ± 0.044
CCAATCCC	-0.008 ± 0.041
CAACTCTC	-0.0237 ± 0.0004
AAGTTAAC	0.000455 ± 0.059
CGTATGTC	-0.00215 ± 0.014
ACTATCTC	-0.0871 ± 0.021
CTATTTTA	-0.187 ± 0.052
ATCGTTAA	0.202 ± 0.037
CCAACAAG	0.187 ± 0.0044
AGTGGTCC	-0.187 ± 0.032
CCTGGTAC	-0.00179 ± 0.032
GTAATGTA	-0.265 ± 0.034
CGTTACAG	0.0884 ± 0.12
GTTACACA	0.203 ± 0.0028
AGGGTTCA	-0.137 ± 0.054
ACTGTACT	-0.0426 ± 0.11
ATAATAGG	-0.0475 ± 0.033
ATCATGTC	0.0741 ± 0.013
CAGAGGGG	-0.238 ± 0.036
CTCTATTA	-0.0121 ± 0.1
AAGGCTAG	-0.218 ± 0.07
